The assay relates to NCI-H322M lung. The experiment in a line: NCI anticancer screen, dose series, 48 h.

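Test compounds were applied to cells in 96-well plates for 48 hours at 5 doses. GI50 marks 50% less growth. At the TGI there is no net growth.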 Where only a bound is given, the exact number is not on record here.

Turning to `Cn1cc(-c2cc(N)n3nc(-c4c[nH]c5ccc(Br)cc45)cc3n2)c2cccnc21`, the GI50 is 2.12 µM and the TGI came to 6.97 µM.

In the case of `Cc1cc(C(F)(F)F)ccc1C(=O)Nc1sc2c(c1C#N)CCC(=O)C2`, the GI50 is 6.1 µM and the TGI is over 100 µM.

These data come from PubChem BioAssay (NCI).
